# Source: PubChem BioAssay AID1768 (National Center for Advancing Translational Sciences (NCATS), 2009)
# Screen size: about 270,000 compounds; about 620 (0.23%) were called active. The inconclusive results got no clear call from the source; some entries with a clear call stand among them for comparison. The call rests on the fitted dose curve; in most records, active means well fitted inhibition curve with a large enough effect in the polarisation, with a control signal flat (not every such curve was filed as active); inconclusive means small, poorly fitted or top-dose-only effect, or effect the other way, or a change in a side signal; inactive means no such curve, though single readings can be large or run the other way; the % refers to the polarisation. Potencies of inconclusive entries are doubtful fits and often do not repeat. “Side channel” marks fits to a control or component signal instead of the main read-out.
# Biological target: Menin (Homo sapiens) (UniProt O00255)
# UniProt O00255, sequence (O00255 whole entry, looked up): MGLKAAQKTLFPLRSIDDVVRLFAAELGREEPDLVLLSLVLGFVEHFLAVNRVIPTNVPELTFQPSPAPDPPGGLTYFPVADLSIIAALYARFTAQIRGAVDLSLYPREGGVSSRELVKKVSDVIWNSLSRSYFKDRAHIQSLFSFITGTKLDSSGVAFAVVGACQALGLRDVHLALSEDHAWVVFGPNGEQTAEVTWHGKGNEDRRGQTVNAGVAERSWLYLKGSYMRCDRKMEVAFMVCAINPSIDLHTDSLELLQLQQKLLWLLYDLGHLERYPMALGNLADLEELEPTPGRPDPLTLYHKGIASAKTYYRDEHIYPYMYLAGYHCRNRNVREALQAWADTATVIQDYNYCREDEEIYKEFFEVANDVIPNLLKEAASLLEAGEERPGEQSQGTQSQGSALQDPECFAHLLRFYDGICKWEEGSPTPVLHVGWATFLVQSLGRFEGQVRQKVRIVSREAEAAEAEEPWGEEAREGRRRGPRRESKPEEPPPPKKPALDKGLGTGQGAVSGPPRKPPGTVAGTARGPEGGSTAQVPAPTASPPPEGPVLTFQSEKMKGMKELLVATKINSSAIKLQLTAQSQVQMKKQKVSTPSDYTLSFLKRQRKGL
# Assay: qHTS Assay for Inhibitors Targeting the Menin-MLL Interaction in MLL Related Leukemias: Competition With Texas Red Labeled MLL-derived Mutant Peptide; on FP activity change, negative = inhibition: % of control where 0% means no effect
# Details: fluorescence polarization; FP activity change, negative = inhibition: at 61.6 µM (top of the series)
# Potency means the concentration at half of the fitted maximal effect; tags describe the fitted curve by direction and shape or compound fluorescence and quenching.
Structure (SMILES),Potency,"FP activity change, negative = inhibition"
Cc1ccc2cc(CN(Cc3nnnn3C3CCCCC3)CC3CCCO3)c(=O)[nH]c2c1 (stereo not given),"inconclusive: 2.51 µM [fluorescent, side channel, full curve]",
CCc1ccc(C(=O)CSC2=C(C#N)C(c3ccco3)C(C(C)=O)=C(C)N2)cc1 (stereo not given),"inconclusive: 25.1 µM [quencher, side channel, partial curve]",
O=C(CCC(=O)c1cccs1)Nc1ccc(N2CCCCC2)cc1,"inconclusive: 17.8 µM [quencher, side channel, partial curve]",
O=C(c1cc2cc(Cl)cc(Cl)c2oc1=O)N1CCOCC1,inactive,
Cc1ccc2nc(/C(C#N)=C/c3ccc(O)c(O)c3)[nH]c2c1,"inconclusive: 11.2 µM [quencher, side channel, partial curve]",
Cc1nnc(SCc2cccc(Oc3ccccc3)c2)n1N,inactive,
CCCCCC(=O)NC(=S)Nc1ccc(N2CCOCC2)cc1,"inconclusive: 39.8 µM [inhibitor, single point]",
Cc1nc2ccccc2n1CC(=O)N/N=C\c1ccccn1,"inconclusive: 8.91 µM [inhibitor, single point]",
CC(C)N(CCc1ccncc1)C(=O)Nc1ccc(F)cc1,,inactive: 5.57% [at 11.7 µM]
Cc1cccc(C)c1NC(=O)NC1CC2CCC(C1)N2Cc1cccs1 (stereo not given),"inconclusive: 39.8 µM [inhibitor, single point]",
O=C(NCc1ccc(F)cc1)C1CCC(CNS(=O)(=O)c2cccs2)CC1 (stereo not given),"inconclusive: 39.8 µM [fluorescent, side channel, single point]",
Cc1ccc(C)c(OCC(=O)N2CCc3ccccc3C2)c1,"inconclusive: 20 µM [fluorescent, side channel, partial curve]",
O=[N+]([O-])c1ccc2nc(C(O)C(O)c3nc4ccc([N+](=O)[O-])cc4[nH]3)[nH]c2c1 (stereo not given),"inconclusive: 35.5 µM [quencher, side channel, single point]",
CCOc1ccc(N)c(SSc2cc(OCC)ccc2N)c1,"inconclusive: 39.8 µM [quencher, single point]",
Cc1cc(Cl)c2oc(C(=O)N(C)CCCN3CCOCC3)c(C)c2c1,"inconclusive: 15.8 µM [inhibitor, partial curve]",
Cc1cc(C(=O)N/N=C\c2ccc(COc3ccc([N+](=O)[O-])cc3)o2)ccc1[N+](=O)[O-],"inconclusive: 20 µM [quencher, side channel, partial curve]",
CC(C(=O)NC1CCCC1)N(C(=O)CS(=O)CC(=O)Nc1ccc(F)cc1)c1ccc2c(c1)OCCO2 (stereo not given),"inconclusive: 3.55 µM [inhibitor, single point]",
Cc1ccc(NC2c3ncccc3C(=O)N2Cc2cccs2)cc1 (stereo not given),inactive,
O=C(Nc1ccccc1-c1nc2ccccc2[nH]1)c1ccc(N2C(=O)CCC2=O)cc1,"inconclusive: 39.8 µM [inhibitor, single point]",
CC1CCC(C(=O)NC(C(=O)NCCc2ccc(S(N)(=O)=O)cc2)C(C)C)CC1 (stereo not given),"inconclusive: 39.8 µM [fluorescent, side channel, single point]",

Structure (SMILES),Potency,"FP activity change, negative = inhibition"
Cc1ccccc1-n1ncc(C(C)NC(=O)c2ccccc2)c1C (stereo not given),"inconclusive: 2.24 µM [fluorescent, side channel, partial curve, poor fit]",
COC/C=C/C1=CC2=CC(=O)C(C)(OC(=O)c3ccc(Cl)nc3)C(=O)C2=CO1 (stereo not given),"inconclusive: 28.2 µM [quencher, side channel, single point]",
Nc1n[nH]c(N)c1N=Nc1cccc(C(F)(F)F)c1,"inconclusive: 20 µM [quencher, side channel, single point]",
COc1ccc(-c2csc(NC(=O)c3ccccc3Br)c2C(=O)O)cc1,"inconclusive: 20 µM [quencher, side channel, single point]",
O=C(NN1C(=O)C2C3C=CC(C3)C2C1=O)c1cccc(Cl)c1 (stereo not given),inactive,
O=C(Nc1cccnc1)c1ccc(C(=O)Nc2cccnc2)cc1,inactive,
Cc1nn(Cc2ccccc2Cl)c(C)c1NC(=O)c1nc2ncccn2n1,"inconclusive: 12.6 µM [inhibitor, single point]",
N/C(=N\OC(=O)c1ccccc1F)c1ccc([N+](=O)[O-])cc1,"inconclusive: 28.2 µM [quencher, side channel, single point]",
O=C1CC(c2ccco2)CC2=C1C(c1ccccc1)n1nc(C(F)(F)F)nc1N2 (stereo not given),"inconclusive: 35.5 µM [quencher, side channel, single point]",
CC1(C)C(=O)Nc2ccccc2N1C(=O)CSc1nc(-c2ccccc2)cs1,inactive,
CCOc1ccc(Cc2c(Cl)nc(SC)nc2OC)cc1,"inconclusive: 39.8 µM [inhibitor, single point]",
O=C1CN(C(=O)NCC(=O)N[C@@H](C(=O)O)c2ccccc2)c2ccccc2N1,"inconclusive: 3.55 µM [inhibitor, partial curve, poor fit]",
O=C(CSCC(=O)Nc1nc(-c2ccc3c(c2)OCO3)cs1)Nc1nccs1,"inconclusive: 4.47 µM [quencher, side channel, full curve]",
CCOc1ccc(-c2cnc(N)n2C)cc1,"inconclusive: 39.8 µM [inhibitor, single point]",
Nc1nc(-c2ccc(Cl)cc2)c(N=Nc2ccc(S(=O)(=O)N3CCOCC3)cc2)s1,"inconclusive: 3.16 µM [quencher, side channel, full curve]",
Cc1snc(SCC(=O)c2ccc([N+](=O)[O-])cc2)c1C#N,"inconclusive: 14.1 µM [quencher, side channel, partial curve]",
Cc1ccc(-n2nc3ccc(NC(=O)/C=C/c4ccco4)cc3n2)cc1C,"inconclusive: 7.08 µM [quencher, side channel, partial curve]",
O=C(NCCc1c[nH]c2ccccc12)c1ccc(Cl)cc1,"inconclusive: 15.8 µM [quencher, side channel, partial curve]",
CCNC(=O)c1ccccc1NC(=O)c1cccc(S(=O)(=O)N2CCC(C)CC2)c1,"inconclusive: 31.6 µM [quencher, side channel, single point]",
COc1ccc(SCC(Cc2ccccc2)N2CCN(CC(C)C)CCC2=O)cc1 (stereo not given),inactive,

Structure (SMILES),Potency,"FP activity change, negative = inhibition"
COc1cc(C)c(NC(=O)C(=S)NCCc2ccccc2)cc1C,inactive,
COc1cccc2c1[C@@H]1CN(CCCCn3c(=O)[nH]c4c(sc5ncc(-c6ccccc6)nc54)c3=O)C[C@@H]1CO2,"inconclusive: 3.16 µM [fluorescent, side channel, full curve]",
O=C(Nc1nnc(-c2ccc3c(c2)CCCC3)o1)c1ccc(Cl)cc1Cl,"inconclusive: 10 µM [quencher, side channel, single point]",
C=CCC(Nc1ccc(OC)cc1)C(=O)OCC (stereo not given),inactive,
COC(=O)c1ccc(NC(=O)Nc2ccc([N+](=O)[O-])cc2)cc1,"inconclusive: 14.1 µM [quencher, side channel, partial curve]",
CC(C)(C)C(=O)N1CCN(c2ncnc3scc(-c4ccccc4)c23)CC1,"inconclusive: 20 µM [fluorescent, side channel, partial curve]",
CCCSC1=C(C#N)C2(CCCCC2)C(C#N)=C(N)N1,"inconclusive: 28.2 µM [quencher, side channel, partial curve]",
O=c1c2ccccc2nc(/C=C/c2ccc(O)cc2)n1CCc1ccccc1,"inconclusive: 5.62 µM [quencher, side channel, full curve]",
Cc1cccc(/C=N/Nc2cc(N3CCOCC3)nc(N3CCOCC3)n2)c1,inactive,
Cc1ccc(-c2csc(NC(=O)/C=C/c3ccco3)c2C(=O)O)cc1,"inconclusive: 14.1 µM [quencher, side channel, partial curve]",
CSc1nc(NCC(C)O)c2c3c(sc2n1)CN(C)CC3 (stereo not given),inactive,
CCOc1ccccc1N1CCN(C(=O)c2c(C)noc2C)CC1,"inconclusive: 3.16 µM [inhibitor, single point]",
Cc1[nH]n(-c2ccc([N+](=O)[O-])cc2)c(=O)c1C=NCCc1c(C)[nH]c2ccccc12,"inconclusive: 7.94 µM [quencher, side channel, full curve]",
NC(=O)C1Cc2ccccc2CN1C(=O)c1cccc(Oc2ccccc2)c1 (stereo not given),"inconclusive: 20 µM [fluorescent, side channel, partial curve]",
O=C(CCNS(=O)(=O)c1cccc2nonc12)NC1CCCCC1,"inconclusive: 14.1 µM [inhibitor, partial curve, poor fit]",
CCOc1ccc(-n2c(=S)sc3c(=O)[nH]c(SCC(=O)NC(C)CC)nc32)cc1 (stereo not given),"inconclusive: 31.6 µM [quencher, side channel, partial curve]",
C/C(=N\Nc1cccc2cccnc12)c1ccccn1,"inconclusive: 39.8 µM [quencher, side channel, single point]",
Cc1[nH]c2ccccc2c1C(C[N+](=O)[O-])c1cccs1 (stereo not given),"inconclusive: 28.2 µM [quencher, side channel, single point]",
N#Cc1ccc(CN2CCCC3(CCN(C(=O)c4cc(C(F)(F)F)cc(C(F)(F)F)c4)CC3)C2)cc1,"inconclusive: 7.94 µM [inhibitor, full curve]",
Cn1c(Nc2ccccc2)cc(=O)n(C)c1=O,"inconclusive: 39.8 µM [inhibitor, single point]",
